# The supplement of paper PMC8728848
# The list shows a part of the results.
# Columns and labels:
# Assay in all cases: glycan array binding signal (z-score within array); higher = stronger binding
# Settings in all cases: glycan notation: IUPAC condensed, linker removed
# [1] = biological target: Fuc(a1-3)[Gal(b1-4)]GlcNAc(b1-3)Gal(b1-3)[Fuc(a1-4)]GlcNAc
# How it was run: (§1)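 Columns mapping to the same glycan were averaged after glycan names were converted to IUPAC-condensed notation. The data come from 3228 arrays in the Consortium for Functional Glycomics database, limited to those with an available protein sequence. Binding is reported as a within-array Z-score averaged across arrays of one protein sequence and across linkers.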
# [2] = biological target: Fuc(a1-3)[Gal(b1-4)]GlcNAc(b1-3)Gal(b1-4)[Fuc(a1-3)]GlcNAc
# How it was run: as §1
# [3] = biological target: Fuc(a1-3)[Gal(b1-4)]GlcNAc(b1-3)Gal(b1-4)[Fuc(a1-3)]GlcNAc(b1-3)Gal(b1-4)[Fuc(a1-3)]GlcNAc
# How it was run: as §1
# [4] = biological target: Fuc(a1-3)[Gal(b1-4)]GlcNAc(b1-3)GalNAc
# How it was run: as §1
# [5] = biological target: Fuc(a1-3)[Gal(b1-4)]GlcNAc(b1-6)GalNAc
# How it was run: as §1
# [6] = biological target: Fuc(a1-3)[Gal(b1-4)]GlcNAc(b1-6)[Gal(b1-3)GlcNAc(b1-3)]Gal(b1-4)Glc
# How it was run: as §1
# [7] = biological target: Fuc(a1-3)[Gal(b1-4)]GlcNAc6S
# How it was run: as §1
# [8] = biological target: Fuc(a1-3)[Gal3S(b1-4)]Glc
# How it was run: as §1
# [9] = biological target: Fuc(a1-3)[Gal3S(b1-4)]GlcNAc
# How it was run: as §1
# [10] = biological target: Fuc(a1-3)[Gal3S(b1-4)]GlcNAc6S
# How it was run: as §1
# [11] = biological target: Fuc(a1-3)[GalNAc(b1-4)]GlcNAc
# How it was run: as §1
# [12] = biological target: Fuc(a1-3)[GalNAc(b1-4)]GlcNAc6S
# How it was run: as §1
# Fuc(a1-4)GlcNAc = biological target: Fuc(a1-4)GlcNAc
# How it was run: as §1
# Fuc(b1-3)GlcNAc = biological target: Fuc(b1-3)GlcNAc
# How it was run: as §1
# Gal(a1-2)Gal = biological target: Gal(a1-2)Gal
# How it was run: as §1
# Gal(a1-3)Gal = biological target: Gal(a1-3)Gal
# How it was run: as §1
# Gal(a1-3)Gal(b1-3)GlcNAc = biological target: Gal(a1-3)Gal(b1-3)GlcNAc
# How it was run: as §1
# [13] = biological target: Gal(a1-3)Gal(b1-3)GlcNAc(b1-2)Man
# How it was run: as §1
# [14] = biological target: Gal(a1-3)Gal(b1-3)GlcNAc(b1-2)Man(a1-3)[Gal(a1-3)Gal(b1-3)GlcNAc(b1-2)Man(a1-6)]Man(b1-4)GlcNAc(b1-4)GlcNAc
# How it was run: as §1
# [15] = biological target: Gal(a1-3)Gal(b1-3)GlcNAc(b1-3)GalNAc
# How it was run: as §1
# [16] = biological target: Gal(a1-3)Gal(b1-3)GlcNAc(b1-6)GalNAc
# How it was run: as §1
# [17] = biological target: Gal(a1-3)Gal(b1-3)[Fuc(a1-4)]GlcNAc(b1-2)Man(a1-3)[Gal(a1-3)Gal(b1-3)[Fuc(a1-4)]GlcNAc(b1-2)Man(a1-6)]Man(b1-4)GlcNAc(b1-4)GlcNAc
# How it was run: as §1
# Gal(a1-3)Gal(b1-4)Glc = biological target: Gal(a1-3)Gal(b1-4)Glc
# How it was run: as §1
# Gal(a1-3)Gal(b1-4)GlcNAc = biological target: Gal(a1-3)Gal(b1-4)GlcNAc
# How it was run: as §1
# [18] = biological target: Gal(a1-3)Gal(b1-4)GlcNAc(b1-2)Man
# How it was run: as §1
# [19] = biological target: Gal(a1-3)Gal(b1-4)GlcNAc(b1-2)Man(a1-3)[Gal(a1-3)Gal(b1-4)GlcNAc(b1-2)Man(a1-6)]Man(b1-4)GlcNAc(b1-4)GlcNAc
# How it was run: as §1
# [20] = biological target: Gal(a1-3)Gal(b1-4)GlcNAc(b1-3)GalNAc
# How it was run: as §1
# [21] = biological target: Gal(a1-3)Gal(b1-4)GlcNAc(b1-6)GalNAc
# How it was run: as §1
# [22] = biological target: Gal(a1-3)Gal(b1-4)[Fuc(a1-3)]GlcNAc
# How it was run: as §1
# [23] = biological target: Gal(a1-3)Gal(b1-4)[Fuc(a1-3)]GlcNAc(b1-2)Man(a1-3)[Gal(a1-3)Gal(b1-4)[Fuc(a1-3)]GlcNAc(b1-2)Man(a1-6)]Man(b1-4)GlcNAc(b1-4)GlcNAc
# How it was run: as §1
# Gal(a1-3)GalNAc = biological target: Gal(a1-3)GalNAc
# How it was run: as §1
# [24] = biological target: Gal(a1-3)[Gal(a1-4)]Gal(b1-4)GlcNAc
# How it was run: as §1
# [25] = biological target: Gal(a1-4)Gal(b1-3)GlcNAc(b1-2)Man(a1-3)[Gal(a1-4)Gal(b1-3)GlcNAc(b1-2)Man(a1-6)]Man(b1-4)GlcNAc(b1-4)GlcNAc
# How it was run: as §1
# Gal(a1-4)Gal(b1-4)Glc = biological target: Gal(a1-4)Gal(b1-4)Glc
# How it was run: as §1
# Gal(a1-4)Gal(b1-4)GlcNAc = biological target: Gal(a1-4)Gal(b1-4)GlcNAc
# How it was run: as §1
# [26] = biological target: Gal(a1-4)Gal(b1-4)GlcNAc(b1-2)Man(a1-3)[Gal(a1-4)Gal(b1-4)GlcNAc(b1-2)Man(a1-6)]Man(b1-4)GlcNAc(b1-4)GlcNAc
# How it was run: as §1
# [27] = biological target: Gal(a1-4)Gal(b1-4)GlcNAc(b1-3)Gal(b1-4)Glc
# How it was run: as §1
# Gal(a1-4)GlcNAc = biological target: Gal(a1-4)GlcNAc
# How it was run: as §1
binder,measurement,setting,value
"Gal 8 (Mus musculus), Q9JL15 (protein) MGGSHHHHHHGMASMLSLNNLQNIIYNPIIPYVGTITEQLKPGSLIVIRGHVPKDSERFQVDFQLGNSLKPRADVAFHFNPRFKRSSCIVCNTLTQEKWGWEEITYDMPFRKEKSFEIVFMVLKNKFQVAVNGRHVLLYAHRISPEQIDTVGIYGKVNIHSIGFRFSSASALPHTLGDLQSMETSALGLTQINRENIQKPGKLQLSLPFEARLNASMGPGRTVVIKGEVNTNARSFNVDLVAGKTRDIALHLNPRLNVKAFVRNSFLQDAWGEEERNITCFPFSSGMYFEMIIYCDVREFKVAINGVHSLEYKHRFKDLSSIDTLSVDGDIRLLDVRSW",glycan array binding signal (z-score),[1],-0.537
same,glycan array binding signal (z-score),[2],-0.528
same,glycan array binding signal (z-score),[3],-0.537
same,glycan array binding signal (z-score),[4],-0.533
same,glycan array binding signal (z-score),[5],-0.529
same,glycan array binding signal (z-score),[6],0.008
same,glycan array binding signal (z-score),[7],-0.533
same,glycan array binding signal (z-score),[8],-0.523
same,glycan array binding signal (z-score),[9],-0.521
same,glycan array binding signal (z-score),[10],-0.518
same,glycan array binding signal (z-score),[11],-0.529
same,glycan array binding signal (z-score),[12],-0.542
same,glycan array binding signal (z-score),Fuc(a1-4)GlcNAc,-0.474
same,glycan array binding signal (z-score),Fuc(b1-3)GlcNAc,-0.5
same,glycan array binding signal (z-score),Gal(a1-2)Gal,-0.537
same,glycan array binding signal (z-score),Gal(a1-3)Gal,-0.521
same,glycan array binding signal (z-score),Gal(a1-3)Gal(b1-3)GlcNAc,-0.09
same,glycan array binding signal (z-score),[13],0.264
same,glycan array binding signal (z-score),[14],-0.276
same,glycan array binding signal (z-score),[15],0.221
same,glycan array binding signal (z-score),[16],0.273
same,glycan array binding signal (z-score),[17],-0.204
same,glycan array binding signal (z-score),Gal(a1-3)Gal(b1-4)Glc,0.2
same,glycan array binding signal (z-score),Gal(a1-3)Gal(b1-4)GlcNAc,0.325
same,glycan array binding signal (z-score),[18],0.378
same,glycan array binding signal (z-score),[19],2.1
same,glycan array binding signal (z-score),[20],0.166
same,glycan array binding signal (z-score),[21],0.271
same,glycan array binding signal (z-score),[22],-0.546
same,glycan array binding signal (z-score),[23],-0.406
same,glycan array binding signal (z-score),Gal(a1-3)GalNAc,-0.533
same,glycan array binding signal (z-score),[24],-0.533
same,glycan array binding signal (z-score),[25],-0.534
same,glycan array binding signal (z-score),Gal(a1-4)Gal(b1-4)Glc,-0.504
same,glycan array binding signal (z-score),Gal(a1-4)Gal(b1-4)GlcNAc,-0.457
same,glycan array binding signal (z-score),[26],-0.532
same,glycan array binding signal (z-score),[27],0.175
same,glycan array binding signal (z-score),Gal(a1-4)GlcNAc,-0.536
